The supplement of paper PMC12067230
Single values of this set are uncertain.

Experiment: amyloid nucleation score relative to library mode (yeast Sup35 reporter selection) (log enrichment difference); higher = more amyloid nucleation; sequences are the first 22 residues of the Bri2 peptide extended by up to 12 random residues
Settings: random library (experiment): 1;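 active = nucleation score significantly above 0 at FDR 0.05; inactive = not significantly above 0 or absent from output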
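Further: [psi-pin-] Saccharomyces cerevisiae expressing SupN fusions, induced by 100 µM Cu2SO4, selected 7 d at 30 °C without adenine and uracil, scored by deep sequencing of output versus input.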

| Sequence | amyloid nucleation score |
| --- | --- |
| EASNCFAIRHFENKFAVETLICDWRCFTDYDSWR | 3.96 |
| EASNCFAIRHFENKFAVETLICDWRCTGDPLRRV | 5.44 |
| EASNCFAIRHFENKFAVETLICDWTRSCCISSLC | 0.887 |
| EASNCFAIRHFENKFAVETLICDWWLCNNTAKHR | 1.87 |
| EASNCFAIRHFENKFAVETLICDYCHEGAGLQYG | inactive |
| EASNCFAIRHFENKFAVETLICDYCVWERVSGEA | inactive |
| EASNCFAIRHFENKFAVETLICDYDSKGTGRALI | inactive |
| EASNCFAIRHFENKFAVETLICDYESVVGSRGAE | inactive |
| EASNCFAIRHFENKFAVETLICDYLRLVPRVCRC | inactive |
| EASNCFAIRHFENKFAVETLICDYMRLLWSAGAR | inactive |
| EASNCFAIRHFENKFAVETLICDYSKGRICKLAQ | inactive |
| EASNCFAIRHFENKFAVETLICDYVNSNMVHRFM | inactive |
| EASNCFAIRHFENKFAVETLICDYVTRQTPRSHA | inactive |
| EASNCFAIRHFENKFAVETLICEACFD | inactive |
| EASNCFAIRHFENKFAVETLICEADALTEHIRRG | -0.0572 |
| EASNCFAIRHFENKFAVETLICEAFEMMCHVDSE | inactive |
| EASNCFAIRHFENKFAVETLICEAGAV | inactive |
| EASNCFAIRHFENKFAVETLICEAGEPVGEKGPL | inactive |
| EASNCFAIRHFENKFAVETLICEAIGATYGEVRV | inactive |
| EASNCFAIRHFENKFAVETLICEAISEMWGASVR | inactive |
| EASNCFAIRHFENKFAVETLICEAITELSRLREP | inactive |

| Sequence | amyloid nucleation score |
| --- | --- |
| EASNCFAIRHFENKFAVETLICEAMEHPSGSTFL | inactive |
| EASNCFAIRHFENKFAVETLICEAMRAREAWCDH | inactive |
| EASNCFAIRHFENKFAVETLICEAMYCPSQGANW | inactive |
| EASNCFAIRHFENKFAVETLICEANIT | inactive |
| EASNCFAIRHFENKFAVETLICEAPGDGGQKGDR | inactive |
| EASNCFAIRHFENKFAVETLICEAPSGLGGKLQG | inactive |
| EASNCFAIRHFENKFAVETLICEAQCVSREDTRA | inactive |
| EASNCFAIRHFENKFAVETLICEARCLRA | 3.75 |
| EASNCFAIRHFENKFAVETLICEARGSWCWQVCS | inactive |
| EASNCFAIRHFENKFAVETLICEARGTDRRAWQR | inactive |
| EASNCFAIRHFENKFAVETLICEARIYCAAPGPG | inactive |
| EASNCFAIRHFENKFAVETLICEATGRYQLRWTE | inactive |
| EASNCFAIRHFENKFAVETLICEATVYG | inactive |
| EASNCFAIRHFENKFAVETLICEAVRAGRDTGME | 2.28 |
| EASNCFAIRHFENKFAVETLICEAVY | inactive |
| EASNCFAIRHFENKFAVETLICECAVSECMLFVA | inactive |
| EASNCFAIRHFENKFAVETLICECC | inactive |
| EASNCFAIRHFENKFAVETLICECETLTATGTQS | inactive |
| EASNCFAIRHFENKFAVETLICECGCTEYGQSEA | inactive |
| EASNCFAIRHFENKFAVETLICECGHTDADLGTW | 0.609 |
| EASNCFAIRHFENKFAVETLICECGRSGLGLSQC | inactive |

| Sequence | amyloid nucleation score |
| --- | --- |
| EASNCFAIRHFENKFAVETLICECGTVSSGLA | 0.706 |
| EASNCFAIRHFENKFAVETLICECGWVTKRCRCG | inactive |
| EASNCFAIRHFENKFAVETLICECGYRDNPVDRR | 4.99 |
| EASNCFAIRHFENKFAVETLICECKMACGKVLFS | inactive |
| EASNCFAIRHFENKFAVETLICECKPVRCTALRG | 4.49 |
| EASNCFAIRHFENKFAVETLICECLARIMVDSGV | inactive |
| EASNCFAIRHFENKFAVETLICECPIGGDCPGAR | inactive |
| EASNCFAIRHFENKFAVETLICECVASVMEGALG | inactive |
| EASNCFAIRHFENKFAVETLICECVGVLANRSSD | 6.84 |
| EASNCFAIRHFENKFAVETLICECVMCVPRHGSL | 5.18 |
| EASNCFAIRHFENKFAVETLICECVR | inactive |
| EASNCFAIRHFENKFAVETLICECWCPVGVSMVL | 6.98 |
| EASNCFAIRHFENKFAVETLICECYVWDSVRQYT | inactive |
| EASNCFAIRHFENKFAVETLICEDAASYSVMWEV | 1.45 |
| EASNCFAIRHFENKFAVETLICEDARKGVGEAWE | inactive |
| EASNCFAIRHFENKFAVETLICEDKATTGVVSRS | inactive |
| EASNCFAIRHFENKFAVETLICEDMRVHLHYSRW | inactive |
| EASNCFAIRHFENKFAVETLICEDMSAVYMVGPL | -0.317 |
| EASNCFAIRHFENKFAVETLICEDNFSIIHALAY | inactive |
| EASNCFAIRHFENKFAVETLICEDNKTRIALMVG | 0.482 |

Same assay, conditions: random library (experiment): 2

| Sequence | amyloid nucleation score |
| --- | --- |
| EASNCFAIRHFENKFAVETLICDWSCVPLFQCVY | 4.52 |
| EASNCFAIRHFENKFAVETLICDWSVFTSAYLIQ | inactive |
| EASNCFAIRHFENKFAVETLICDY | inactive |
| EASNCFAIRHFENKFAVETLICDYCLASFKNPGA | 1.37 |
| EASNCFAIRHFENKFAVETLICDYCLFNDRFSCL | inactive |
| EASNCFAIRHFENKFAVETLICDYETLRS | inactive |
| EASNCFAIRHFENKFAVETLICDYIM | inactive |
| EASNCFAIRHFENKFAVETLICDYLDSLHVRD | inactive |
| EASNCFAIRHFENKFAVETLICDYLLVCE | inactive |
| EASNCFAIRHFENKFAVETLICDYPC | inactive |
| EASNCFAIRHFENKFAVETLICDYPCRCSANMPN | 2.69 |
| EASNCFAIRHFENKFAVETLICDYRRRL | inactive |
| EASNCFAIRHFENKFAVETLICDYRRTSGTGACN | inactive |
| EASNCFAIRHFENKFAVETLICDYSR | inactive |
| EASNCFAIRHFENKFAVETLICDYWMSRMVSTEL | 0.929 |
| EASNCFAIRHFENKFAVETLICEALQECFEYGP | inactive |
| EASNCFAIRHFENKFAVETLICEARKDCLITAVR | inactive |
| EASNCFAIRHFENKFAVETLICECCAGVRDWQC | 2.6 |
| EASNCFAIRHFENKFAVETLICECD | inactive |
| EASNCFAIRHFENKFAVETLICECFIFGILSLGT | inactive |
| EASNCFAIRHFENKFAVETLICECL | 0.186 |
| EASNCFAIRHFENKFAVETLICECLGFYRACNCV | 7.38 |
| EASNCFAIRHFENKFAVETLICECLRTVM | inactive |
| EASNCFAIRHFENKFAVETLICECLSLACSGPSN | 6.79 |
| EASNCFAIRHFENKFAVETLICECYFYWYRLRSF | inactive |
| EASNCFAIRHFENKFAVETLICEDGA | -0.0862 |
| EASNCFAIRHFENKFAVETLICEDGVVGSFKDSA | inactive |
| EASNCFAIRHFENKFAVETLICEDHNSNVRVVLV | inactive |
| EASNCFAIRHFENKFAVETLICEDMSYIW | inactive |

Same assay, conditions: random library (experiment): 3

| Sequence | amyloid nucleation score |
| --- | --- |
| EASNCFAIRHFENKFAVETLICDYG | inactive |
| EASNCFAIRHFENKFAVETLICDYGDCVVTWNWG | inactive |
| EASNCFAIRHFENKFAVETLICDYKCQKYASLLR | inactive |
| EASNCFAIRHFENKFAVETLICDYLLRRNWFFR | inactive |
| EASNCFAIRHFENKFAVETLICDYMCFVR | inactive |
| EASNCFAIRHFENKFAVETLICDYMQPMVVSSWR | inactive |
| EASNCFAIRHFENKFAVETLICEACRVRGVMQSR | 1 |
| EASNCFAIRHFENKFAVETLICEAESGGKSTVWR | inactive |
| EASNCFAIRHFENKFAVETLICEAFQDACLRL | inactive |
| EASNCFAIRHFENKFAVETLICEAHAGWDQRAHI | 1.95 |
| EASNCFAIRHFENKFAVETLICEALGRIDVRVGR | inactive |
| EASNCFAIRHFENKFAVETLICEAM | 0.788 |
| EASNCFAIRHFENKFAVETLICEAQLVEATRSVE | inactive |
| EASNCFAIRHFENKFAVETLICEASPRRDRWGTV | -0.225 |
| EASNCFAIRHFENKFAVETLICEASWYP | 0.405 |
| EASNCFAIRHFENKFAVETLICEAVAERAQCSDG | inactive |
| EASNCFAIRHFENKFAVETLICEAWVGSCGGS | inactive |
| EASNCFAIRHFENKFAVETLICECAIGVRLVYQR | inactive |
| EASNCFAIRHFENKFAVETLICECIWIRIVKDGE | inactive |
| EASNCFAIRHFENKFAVETLICECLVALCCYDLP | inactive |
| EASNCFAIRHFENKFAVETLICECPFLRKAGEFS | 6.64 |
| EASNCFAIRHFENKFAVETLICECRWGGFLFHRL | inactive |
| EASNCFAIRHFENKFAVETLICECRYMAELGSRR | 4.75 |
| EASNCFAIRHFENKFAVETLICECYTNVEKVIDL | inactive |
| EASNCFAIRHFENKFAVETLICEDASEHVGWGSW | inactive |
| EASNCFAIRHFENKFAVETLICEDGPWIRPPR | inactive |
| EASNCFAIRHFENKFAVETLICEDMVRLHSHLWQ | 3.17 |
